Out of some 73,000 compounds screened, about 2,500 (3.4%) were called active. Inconclusive results, whose numbers are uncertain, are shown with a selection of clear calls. Calls follow the shape of the dose curve; as a rule, active = well fitted inhibition curve with a large enough effect; inconclusive = small, poorly fitted or top-dose-only effect; inactive = no such curve, though single readings can be large or run the other way. Potencies of inconclusive entries are doubtful fits and often do not repeat.
target: 3-hydroxyacyl-CoA dehydrogenase type-2 (Homo sapiens) (UniProt Q99714); assay: qHTS Assay for Inhibitors of HADH2 (Hydroxyacyl-Coenzyme A Dehydrogenase, Type II); conditions: recombinant HADH2, NADH fluorescence, beta-hydroxybutyryl-CoA; activity change, negative = inhibition: at 57.1 µM (top of the series); also: nearly all actives have a fitted effect of over 60% in size
Chain of UniProt Q99714 (Q99714 whole entry, looked up): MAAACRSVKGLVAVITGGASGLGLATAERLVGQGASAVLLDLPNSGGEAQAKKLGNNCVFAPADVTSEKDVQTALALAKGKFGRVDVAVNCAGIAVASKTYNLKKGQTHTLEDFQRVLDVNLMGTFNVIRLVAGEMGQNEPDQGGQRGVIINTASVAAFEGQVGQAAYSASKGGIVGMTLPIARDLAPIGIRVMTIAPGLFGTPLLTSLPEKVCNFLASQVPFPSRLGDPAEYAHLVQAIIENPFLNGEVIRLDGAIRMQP
Chain of UniProt Q99714 (Q99714 whole entry, looked up): as above
Outline: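 Read-out: 360 nm excitation, 450 nm emission, kinetic over 4 min. Conditions: His-tagged human HADH2 20 nM, pH 9.0 Tris with Tween-20, 1 mM NAD+, 90 uM beta-hydroxybutyryl-CoA.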
% is scaled to controls: 0 for no effect and ±100 for the full control effect; potency is read from the fitted curve at half-maximal effect; tags tell the direction and shape of the fitted curve.

Compound	Potency	activity change, negative = inhibition
Nc1ccc2nn(-c3cccc4ccccc34)nc2c1	inconclusive: 3.16 µM [inhibitor, partial curve]	
COC(=O)Cc1c(C)c2c(OCc3nn[nH]n3)cc(C)cc2oc1=O	active: 31.6 µM	
COC(=O)CSc1nc2c(c(-c3ccco3)c1C#N)CCCC2	inconclusive: 3.16 µM [inhibitor, full curve]	
CCOC(=O)CCc1c(C)nc2cc(-c3ccccc3OC)[nH]n2c1=O	active: 31.6 µM	
O=S(=O)(O)c1ccc(-c2nnc(-c3ccccn3)nc2-c2ccc(S(=O)(=O)O)o2)o1	inconclusive: 3.98 µM [inhibitor, partial curve]	
O=C(NCc1ccccn1)c1c(O)c2cccc3c2n(c1=O)CC3		inactive: 4.51%
O=C(O)[C@H]1CCCC[C@@H]1c1c2ccc(=O)c(O)c-2oc2c(O)c(O)ccc12	active: 1 µM	
CCOC(=O)CC(=O)CSc1ncnc2c1cnn2-c1ccccc1	inconclusive: 31.6 µM [inhibitor, single point]	
O=C(CSC1=NCCS1)NCc1ccco1	inconclusive: 3.98 µM [inhibitor, partial curve]	
Cc1ccccc1-c1noc(-c2ccc(O)cc2)n1	inconclusive: 3.16 µM [inhibitor, partial curve]	
CC(=O)Nc1ccc2nc(-c3cccs3)[nH]c2c1		inactive: 428% [at 11.4 µM]
CC(C)(C)NC(=O)Nc1ccc2nccnc2c1	inconclusive: 25.1 µM [inhibitor, partial curve, poor fit]	
COC(=O)Nc1sc2c(c1C(=O)N1CCOCC1)CCC(C)C2 (stereo unspecified)	active: 20 µM	
Cc1ccc(-c2nnc(N3CCN(S(C)(=O)=O)CC3)c3ccccc23)cc1	inconclusive: 31.6 µM [inhibitor, single point]	
CC(C)Sc1nc2c(c(=O)[nH]c(=O)n2C)n1CCc1ccccc1	inconclusive: 39.8 µM [inhibitor, single point]	
CCOC(=O)c1c(-c2ccc(C)s2)csc1NC(=O)c1ccco1	inconclusive: 39.8 µM [inhibitor, single point]	
Cc1ccc(NC(=O)C2CCCN(S(=O)(=O)c3cnc[nH]3)C2)cc1F (stereo unspecified)		inactive: 8.6%
CCCCN(CC)CCCNC(=O)c1cc2cc3ccc(OC)cc3nc2o1	inconclusive: 31.6 µM [inhibitor, single point]	
COc1cccc2cc(C(=O)N3CCC(C)CC3)c(=O)oc12	inconclusive: 20 µM [inhibitor, partial curve]	
Cc1ccc(Cl)c(Nc2ccccc2C(=O)O)c1Cl	inactive	
CC(=O)NCCOc1ccc(C(=O)O)cc1	inconclusive: 25.1 µM [inhibitor, partial curve]	
